The campaign covered roughly 420,000 compounds. About 64,000 (15%) were called active. The inconclusive results got no clear call from the source; some entries with a clear call stand among them for comparison. Calls come from the whole dose curve; as a rule, active = well fitted inhibition curve with a large enough effect; inconclusive = small, poorly fitted or top-dose-only effect; inactive = flat fitted curve, though single readings scatter. No potency is given beside an inconclusive call; the fits are too rough.
Assay: qHTS for Inhibitors of human tyrosyl-DNA phosphodiesterase 1 (TDP1): qHTS in cells in absence of CPT; note: nearly all actives have a fitted effect of over 55% in size
Conditions: DT40 Tdp1-/- hTDP1 cells, no CPT, ATP luminescence, 48 h; activity change, negative = growth inhibition: at 46.2 µM (top of the series) unless noted
Outline: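 Growth kinetics read by CellTiter-Glo luminescence after ≥48 hr at 37 °C. Cells: DT40 Tdp1-/- stably carrying human TDP1, 400 per well, compound exposure in the absence of CPT (DMSO vehicle).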
% is set by controls: 0 for no effect and ±100 for the full control effect; potency is the fitted concentration of half-maximal effect; tags give direction and shape of the fitted curve.

Row | Compound | Potency | activity change, negative = growth inhibition
1 | COC(=O)C(COC(=O)c1c(F)cccc1F)NC(=O)c1c(F)cccc1F (stereo not drawn) | inconclusive [inhibitor, single point] | 
2 | COc1cccc(CC2(CO)CCCN(Cc3ccc(CN4CCCCC4)s3)C2)c1 (stereo not drawn) | inconclusive [inhibitor, single point] | 
3 | COc1ccccc1-n1c([S-])c(C(=O)Nc2ccccc2C(F)(F)F)[n+]2ccc(C(=O)NCCO)cc12 | inconclusive [inhibitor, single point] | 
4 | COc1ccc(C(=O)NCCCc2nc3ccccc3n2Cc2cc(C)ccc2C)cc1OC | inconclusive [inhibitor, single point] | 
5 | CCOc1ccc(C(=O)c2cn(Cc3ccccc3OC)c3cc4c(cc3c2=O)OCCO4)cc1 | active: 14.6 µM | 
6 | CCc1cccc(NC(=O)CN(C)S(=O)(=O)c2cccs2)c1 | inconclusive [inhibitor, partial curve, poor fit] | 
7 | CCn1c(=O)n(CC(=O)NC2CCCC(C)C2C)c(=O)c2ccccc21 (stereo not drawn) | inconclusive [inhibitor, partial curve] | 
8 | CN(C)/C=C(/C(=O)c1ccccc1)S(=O)(=O)c1ccc(Cl)cc1 |  | inactive: -0.434%
9 | Cc1ccc(S(=O)(=O)NCC(=O)N(CC2CCCO2)C(C(=O)NCC2CCCO2)C(C)C)cc1 (stereo not drawn) |  | inactive: 0.112%
10 | CC(C)(C)OC(=O)[C@H](Cc1ccccc1)NC(=O)c1nc[nH]c1C(=O)NC1CCN(C(=O)OC(C)(C)C)CC1 | active: 16.4 µM | 
11 | Cc1ccc(S(=O)(=O)N(C)Cc2ccc(C(=O)NN=C(CC(C)C)CC(C)C)cc2)cc1 | active: 23.1 µM | 
12 | CCOc1cccc(-c2nnc(SCC(=O)Nc3cc(C)ccc3OC)n2N)c1 | inconclusive [inhibitor, single point] | 
13 | O=C(c1cnn2c(C(F)F)cc(-c3ccccc3)nc12)N1CCCCC1c1cccnc1 (stereo not drawn) | inconclusive [inhibitor, single point] | 
14 | O=C1C2CC=CCC2C(=O)N1c1nc2n(n1)C(c1ccccc1)CC(c1ccccc1)N2 (stereo not drawn) |  | inactive: -3.3%
15 | CN(C(=O)c1cccc(NC(=O)Cc2ccc(NC(=O)C3CCN(C(=O)C4CC4)CC3)cc2)c1)C1CCCC1 |  | inactive: -13.8%
16 | CCOC(=O)c1cc2c(=O)n3ccccc3nc2n(CCOC)c1=NC(=O)c1ccncc1 | inconclusive [inhibitor, partial curve] | 
17 | Cc1ccc(-c2cn3c(n2)CCCC3)cc1 | inconclusive [inhibitor, partial curve] | 
18 | Cc1nn(Cc2cccc(C(=O)NC34CC5CC(CC(C5)C3)C4)c2)c(C)c1Br | inconclusive [inhibitor, single point] | 
19 | Cc1ccc(NC(=O)Cn2c(=O)oc3ccccc32)cc1Cl | inconclusive [inhibitor, partial curve] | 
20 | O=C(NC1CC(=O)N(c2cccc(F)c2)C1)c1ccc(S(=O)(=O)N2CCOCC2)cc1 (stereo not drawn) | inconclusive [inhibitor, single point] | 
21 | O=C(O)[C@@H]1CN[C@@H](C(=O)O)C1 |  | inactive: -16.3%
22 | OC(CN1CCCCC1)CN(c1ccccc1)c1ccccc1 (stereo not drawn) | active: 25.9 µM | 
23 | CN(C)NC(=O)C12CCC(C)(C(=O)O1)C2(C)C (stereo not drawn) |  | inactive: 3.4%

Row | Compound | Potency | activity change, negative = growth inhibition
24 | S=c1[nH]nc(-c2ccncc2)n1/N=C/c1cn(-c2ccccc2)nc1-c1ccc(Cl)cc1 | inconclusive [inhibitor, single point] | 
25 | CN1CCN(C(=O)/C(=C/c2cccc([N+](=O)[O-])c2)NC(=O)c2ccccc2)CC1 |  | inactive: -18.2%
26 | CC(C)C[C@@H](CN)NC(=O)c1nc[nH]c1C(=O)N[C@@H](C)C(=O)CNC[C@H](C)NC(=O)c1nc[nH]c1C(=O)N[C@@H](Cc1ccccc1)C(=O)O |  | inactive: 3%
27 | O=[N+]([O-])c1ccc(N=Cc2ccc(Br)c([N+](=O)[O-])c2)cc1 | active: 5.17 µM | 
28 | COc1ccc(NC(=O)Nc2ccc3nc(C)c(C)nc3c2)cc1 |  | inactive: -20.1%
29 | Cc1ccccc1NC(=O)/C=C/c1cccc(C(F)(F)F)c1 |  | inactive: -22.6%
30 | Cc1cnc(NC(=O)c2cncc(Br)c2)s1 |  | inactive: -21.5%
31 | CCOC(=O)c1ccc(NC(=O)CSc2ccc(-c3sc(C)nc3C)nn2)cc1 | inconclusive [inhibitor, single point] | 
32 | COc1cc(C(CC(=O)Nc2ccc(Cl)cn2)N2Cc3ccccc3C2=O)cc(OC)c1OC (stereo not drawn) | inconclusive [inhibitor, single point] | 
33 | O=C(COC(=O)Cn1cnc2ccccc21)Nc1cccc2c1C(=O)c1ccccc1C2=O | active: 9.2 µM | 
34 | O=[N+]([O-])c1ccc(Nc2nc(NC3CCCCC3)nc(N3CCCC3)n2)cc1 | active: 23.1 µM | 
35 | COc1ccc(CCN=C(N)C(C)c2ccccc2)cc1OC (stereo not drawn) |  | inconclusive: -33% [inhibitor]
36 | C/C=C/C=C\C(=O)Nc1cccc(C2=NOC3(C2)C[C@@H](C(N)=O)N(C(=O)c2cc([N+](=O)[O-])cc([N+](=O)[O-])c2)C3)c1 (stereo partly drawn) |  | inactive: -24.4%
37 | O=C(/C=C1\OCc2cc(OCc3ccccc3)ccc21)OCc1ccccc1 | inconclusive [inhibitor, single point] | 
38 | CC(/C=N/NC(=S)Nc1cccc(S(=O)(=O)N(C)C)c1)c1ccccc1 (stereo not drawn) | inconclusive [inhibitor, single point] | 
39 | COc1ccc(Cl)cc1NC(=O)CN(C)C(=O)c1n[nH]c2ccccc12 | inconclusive [inhibitor, full curve] | 
40 | CCOC(=O)c1ccc(NC(=O)c2cn(-c3ccccc3)nc2-c2ccc(Br)cc2)cc1 | inconclusive [inhibitor, partial curve, poor fit] | 
41 | CC(=O)Nc1ccc(S(=O)(=O)Oc2ccc(Br)cc2C(=S)N2CCOCC2)cc1 |  | inactive: -11.6%
42 | O=C1c2cccc3c([N+](=O)[O-])ccc(c23)C(=O)N1CC1CCCO1 (stereo not drawn) | active: 5.8 µM | 
43 | Cn1c(=O)c(=O)n(C)c2cc(S(=O)(=O)N3CCC(Cc4ccccc4)CC3)ccc21 |  | inactive: -22.7%
44 | Cc1c(O)c(=O)ccn1Cc1ccccc1 | active: 18.4 µM | 
45 | c1ccc2c(c1)ccc1nnc(-c3ccc4c(c3)OCO4)n12 | inconclusive [inhibitor, partial curve, poor fit] | 
46 | CCOc1ccc(NC(=S)N(CCc2c(C)[nH]c3ccccc23)Cc2ccco2)cc1 | inconclusive [inhibitor, single point] | 

Row | Compound | Potency | activity change, negative = growth inhibition
47 | COc1ccc(Cn2ccc3nc(C)c(C(=O)N4CCN(c5ccccc5)CC4)cc3c2=O)cc1 |  | inactive: -6.7%
48 | N#Cc1cccc(C#N)c1Oc1ccc(S(=O)(=O)Nc2ccccc2)cc1 | inconclusive [inhibitor, single point] | 
49 | CS(=O)(=O)c1ccc(Cl)c(NC(=O)Cc2c(F)cccc2Cl)c1 |  | inactive: 16.1%
50 | O=C(c1cn(CCOc2ccccc2F)c2ccccc12)C1CCCCC1 | active: 16.4 µM | 
51 | CC1CCN(S(=O)(=O)c2ccc(C(=O)OC(C)C(=O)NC3CCCCC3C)cc2)CC1 (stereo not drawn) | inconclusive [inhibitor, single point] | 
52 | CCNc1nc(=S)nc(NC(C)C)[nH]1 | inconclusive [inhibitor, partial curve] | 
53 | COc1ccc(C(=O)c2oc3ccccc3c2NC(=O)c2ccc(F)cc2)cc1 | inconclusive [inhibitor, single point] | 
54 | COc1ccc(/C=N\NC(=O)c2cc(OCC(F)(F)F)ccc2OCC(F)(F)F)cc1 | inconclusive [inhibitor, partial curve, poor fit] | 
55 | CCn1cc(C(=O)O)c(=O)c2cc(F)c(N3CCN(C(=S)NC(=O)c4ccc(F)c(F)c4)CC3)cc21 | inconclusive [inhibitor, single point] | 
56 | CCCCN(C(=O)c1cccc(S(=O)(=O)N(C)c2ccc(C)cc2)c1)c1c(N)n(CCCC)c(=O)[nH]c1=O |  | inactive: -26.1%
57 | CCC(=O)OC1(C#CCOc2ccc(OC)cc2)CCN(C)CC1 | inconclusive [inhibitor, single point] | 
58 | CC(C)C1Cc2c(sc3c2c(=O)n(-c2ccccc2)c2n[nH]c(=S)n32)CO1 (stereo not drawn) | inconclusive [inhibitor, partial curve] | 
59 | CC(=O)OC(C)C1C2=C(C(=O)CC1(C)O)C(=O)c1c(ccc(-c3ccc4c(c3O)C(=O)C3=C(C4=O)C(C(C)OC(C)=O)C(C)(O)CC3=O)c1O)C2=O (stereo not drawn) | active: 1.46 µM | 
60 | Cn1nc(C(=O)Nc2ccccc2N2CCOCC2)ccc1=O | inconclusive [inhibitor, partial curve] | 
61 | C=CCOc1ccc(/C=C/C(=O)N2CCCN(S(=O)(=O)c3c(C)noc3C)CC2)cc1 | inconclusive [inhibitor, single point] | 
62 | Cc1cccc(OCC(=O)Nc2ccccc2N2CCCCC2)c1 | inconclusive [inhibitor, single point] | 
63 | O=C(NNC(=O)c1ccc(F)cc1)C(=O)N1CCCCC1 |  | inactive: 4.7%
64 | NC(=O)C(c1ccc(Cl)cc1)c1ccc(Sc2ccc(Cl)cc2)nn1 (stereo not drawn) | active: 16.4 µM | 
65 | COc1ccccc1Nc1nc(Cl)nc(NC(C)(C)C)n1 |  | inactive: -27.8%
66 | Cc1occc1C(=O)N/N=C/c1ccc2c(c1)OCO2 | inconclusive [inhibitor, partial curve] | 
67 | CCCCN1C(=O)c2ccc(C(=O)Nc3cccc(C)c3C)cc2C1=O |  | inactive: 2.94%
68 | CCN(CC)CCN(C(=O)c1ccc(CN2CCCCC2)o1)C(C(=O)NC1CCCCC1)c1ccc(F)cc1 (stereo not drawn) | inconclusive [inhibitor, partial curve] | 

From PubChem BioAssay AID686978 (National Center for Advancing Translational Sciences (NCATS), 2013)
